# Results published in paper PMC9911399, “Two distinct binding modes provide the RNA-binding protein RbFox with extraordinary sequence specificity”.
# Positions count from the first letter of the chain named. The list shows a part of the results.
# T1: RBFOX1 RRM (Homo sapiens, UniProt Q9NWB1 109-208)
# T1 sequence: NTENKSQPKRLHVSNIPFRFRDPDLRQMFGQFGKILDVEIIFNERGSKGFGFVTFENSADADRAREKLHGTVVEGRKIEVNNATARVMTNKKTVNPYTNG
# B1: GGACAAA (DNA:RNA)
# RNA: GGGAGACCGGAAUUCAGAUUGUCCGGACAAAUUAAAUCCCGUCGUAGCCACCA
# DNA 1: CAATCTGAATTCCGGTCTCCC
# DNA 2: TGGTGGCTACGACGGGATT
# B2: AAACGCC (DNA:RNA)
# RNA: B1 RNA with G25A, G26A, A29G, A30C, A31C
# DNA 1: CAATCTGAATTCCGGTCTCCC
# DNA 2: TGGTGGCTACGACGGGATT
# B3: UCAUCCA (DNA:RNA)
# RNA: B1 RNA with G25U, G26C, C28U, A29C, A30C
# DNA 1: CAATCTGAATTCCGGTCTCCC
# DNA 2: TGGTGGCTACGACGGGATT
# B4: GGUUGGC (DNA:RNA)
# RNA: B1 RNA with A27U, C28U, A29G, A30G, A31C
# DNA 1: CAATCTGAATTCCGGTCTCCC
# DNA 2: TGGTGGCTACGACGGGATT
# B5: AAGAUGA (DNA:RNA)
# RNA: B1 RNA with G25A, G26A, A27G, C28A, A29U, A30G
# DNA 1: CAATCTGAATTCCGGTCTCCC
# DNA 2: TGGTGGCTACGACGGGATT
# B6: AGGUGAC (DNA:RNA)
# RNA: B1 RNA with G25A, A27G, C28U, A29G, A31C
# DNA 1: CAATCTGAATTCCGGTCTCCC
# DNA 2: TGGTGGCTACGACGGGATT
# B7: UUCCAAA (DNA:RNA)
# RNA: B1 RNA with G25U, G26U, A27C
# DNA 1: CAATCTGAATTCCGGTCTCCC
# DNA 2: TGGTGGCTACGACGGGATT
# B8: UGGUGGG (DNA:RNA)
# RNA: B1 RNA with G25U, A27G, C28U, A29G, A30G, A31G
# DNA 1: CAATCTGAATTCCGGTCTCCC
# DNA 2: TGGTGGCTACGACGGGATT
# B9: GAGAAUA (DNA:RNA)
# RNA: B1 RNA with G26A, A27G, C28A, A30U
# DNA 1: CAATCTGAATTCCGGTCTCCC
# DNA 2: TGGTGGCTACGACGGGATT
# B10: CCUAGCG (DNA:RNA)
# RNA: GGGAGACCGGAAUUCAGAUUGUCCCCUAGCGUUAAAUCCCGUCGUAGCCACCA
# DNA 1: CAATCTGAATTCCGGTCTCCC
# DNA 2: TGGTGGCTACGACGGGATT
# B11: UUCAUUU (DNA:RNA)
# RNA: B10 RNA with C25U, C26U, U27C, G29U, C30U, G31U
# DNA 1: CAATCTGAATTCCGGTCTCCC
# DNA 2: TGGTGGCTACGACGGGATT
# B12: AUGAGCG (DNA:RNA)
# RNA: B10 RNA with C25A, C26U, U27G
# DNA 1: CAATCTGAATTCCGGTCTCCC
# DNA 2: TGGTGGCTACGACGGGATT
# B13: AUGCAAA (DNA:RNA)
# RNA: B1 RNA with G25A, G26U, A27G
# DNA 1: CAATCTGAATTCCGGTCTCCC
# DNA 2: TGGTGGCTACGACGGGATT
# B14: GUUUGUG (DNA:RNA)
# RNA: B10 RNA with C25G, C26U, A28U, C30U
# DNA 1: CAATCTGAATTCCGGTCTCCC
# DNA 2: TGGTGGCTACGACGGGATT
# B15: AGGAAAA (DNA:RNA)
# RNA: B1 RNA with G25A, A27G, C28A
# DNA 1: CAATCTGAATTCCGGTCTCCC
# DNA 2: TGGTGGCTACGACGGGATT
# B16: GUUAUGC (DNA:RNA)
# RNA: B10 RNA with C25G, C26U, G29U, C30G, G31C
# DNA 1: CAATCTGAATTCCGGTCTCCC
# DNA 2: TGGTGGCTACGACGGGATT
# B17: GUUAGAG (DNA:RNA)
# RNA: B10 RNA with C25G, C26U, C30A
# DNA 1: CAATCTGAATTCCGGTCTCCC
# DNA 2: TGGTGGCTACGACGGGATT
# B18: CCAAGGU (DNA:RNA)
# RNA: B10 RNA with U27A, C30G, G31U
# DNA 1: CAATCTGAATTCCGGTCTCCC
# DNA 2: TGGTGGCTACGACGGGATT
# B19: UGGAUUG (DNA:RNA)
# RNA: B10 RNA with C25U, C26G, U27G, G29U, C30U
# DNA 1: CAATCTGAATTCCGGTCTCCC
# DNA 2: TGGTGGCTACGACGGGATT
# B20: CCGACCC (DNA:RNA)
# RNA: B10 RNA with U27G, G29C, G31C
# DNA 1: CAATCTGAATTCCGGTCTCCC
# DNA 2: TGGTGGCTACGACGGGATT
# B21: UGCGCGA (DNA:RNA)
# RNA: B1 RNA with G25U, A27C, C28G, A29C, A30G
# DNA 1: CAATCTGAATTCCGGTCTCCC
# DNA 2: TGGTGGCTACGACGGGATT
# B22: GACUGAC (DNA:RNA)
# RNA: B1 RNA with G26A, A27C, C28U, A29G, A31C
# DNA 1: CAATCTGAATTCCGGTCTCCC
# DNA 2: TGGTGGCTACGACGGGATT
# B23: ACAGAUG (DNA:RNA)
# RNA: B10 RNA with C25A, U27A, A28G, G29A, C30U
# DNA 1: CAATCTGAATTCCGGTCTCCC
# DNA 2: TGGTGGCTACGACGGGATT
# B24: CCUCCAG (DNA:RNA)
# RNA: B10 RNA with A28C, G29C, C30A
# DNA 1: CAATCTGAATTCCGGTCTCCC
# DNA 2: TGGTGGCTACGACGGGATT
# B25: ACUAGGU (DNA:RNA)
# RNA: B10 RNA with C25A, C30G, G31U
# DNA 1: CAATCTGAATTCCGGTCTCCC
# DNA 2: TGGTGGCTACGACGGGATT
# B26: UGUACUC (DNA:RNA)
# RNA: B10 RNA with C25U, C26G, G29C, C30U, G31C
# DNA 1: CAATCTGAATTCCGGTCTCCC
# DNA 2: TGGTGGCTACGACGGGATT
# B27: AGGUAAC (DNA:RNA)
# RNA: B1 RNA with G25A, A27G, C28U, A31C
# DNA 1: CAATCTGAATTCCGGTCTCCC
# DNA 2: TGGTGGCTACGACGGGATT
# B28: AGGGGUG (DNA:RNA)
# RNA: B10 RNA with C25A, C26G, U27G, A28G, C30U
# DNA 1: CAATCTGAATTCCGGTCTCCC
# DNA 2: TGGTGGCTACGACGGGATT
# B29: CCAAGGA (DNA:RNA)
# RNA: B10 RNA with U27A, C30G, G31A
# DNA 1: CAATCTGAATTCCGGTCTCCC
# DNA 2: TGGTGGCTACGACGGGATT
# B30: AGUACGG (DNA:RNA)
# RNA: B10 RNA with C25A, C26G, G29C, C30G
# DNA 1: CAATCTGAATTCCGGTCTCCC
# DNA 2: TGGTGGCTACGACGGGATT
# B31: AAAAUAC (DNA:RNA)
# RNA: B1 RNA with G25A, G26A, C28A, A29U, A31C
# DNA 1: CAATCTGAATTCCGGTCTCCC
# DNA 2: TGGTGGCTACGACGGGATT
# Biological target: T1, RBFOX1 RRM
# Experiment: EMSA; HiTS-Eq, 1 nM pool, 10 min; buffer printed only for the single-RNA assays: 10 mM Tris pH 7.5, 150 mM NaCl, 3.4 mM EDTA, 0.001% NP-40, 30 C
# Conditions: tags: His6 N-terminal (pET28a); label: 5' 32P
# How it was run: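 Purified wild-type or mutant RbFox RRM at increasing concentrations was equilibrated with 1 nM of 5′-radiolabelled RNA carrying 7 randomized nucleotides for 10 min in 50 µL. Unbound RNA was separated by 8% native PAGE and sequenced. Relative association constants came from read-count changes of each RNA species compared with the control reaction, normalised to the cognate motif.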
row,Binder,binding signal
1,B1,0.00689 KA relative to UGCAUGU
2,B2,0.004 KA relative to UGCAUGU
3,B3,0.000335 KA relative to UGCAUGU
4,B4,0.0165 KA relative to UGCAUGU
5,B5,0.00959 KA relative to UGCAUGU
6,B6,0.00507 KA relative to UGCAUGU
7,B7,0.00275 KA relative to UGCAUGU
8,B8,0.0153 KA relative to UGCAUGU
9,B9,0.00678 KA relative to UGCAUGU
10,B10,0.00608 KA relative to UGCAUGU
11,B11,0.00297 KA relative to UGCAUGU
12,B12,0.00995 KA relative to UGCAUGU
13,B13,0.00287 KA relative to UGCAUGU
14,B14,0.0298 KA relative to UGCAUGU
15,B15,0.00624 KA relative to UGCAUGU
16,B16,0.0151 KA relative to UGCAUGU

row,Binder,binding signal
1,B17,0.0166 KA relative to UGCAUGU
2,B18,0.00772 KA relative to UGCAUGU
3,B19,0.0448 KA relative to UGCAUGU
4,B20,0.0013 KA relative to UGCAUGU
5,B21,0.0211 KA relative to UGCAUGU
6,B22,0.0236 KA relative to UGCAUGU
7,B23,0.00623 KA relative to UGCAUGU
8,B24,0.00545 KA relative to UGCAUGU
9,B25,0.00716 KA relative to UGCAUGU
10,B26,0.00909 KA relative to UGCAUGU
11,B27,0.0143 KA relative to UGCAUGU
12,B28,0.0282 KA relative to UGCAUGU
13,B29,0.0126 KA relative to UGCAUGU
14,B30,0.00845 KA relative to UGCAUGU
15,B31,0.000357 KA relative to UGCAUGU
